From publication PMC1762419
Results are given in words; binding and its absence hold for the method and conditions named. In cells and extracts the contact can be indirect. Some binding calls cover weakened binding; strength is not graded here.

By UniProt entry, the sequences of proteins in these tests, tags left out.
UniProt P04406: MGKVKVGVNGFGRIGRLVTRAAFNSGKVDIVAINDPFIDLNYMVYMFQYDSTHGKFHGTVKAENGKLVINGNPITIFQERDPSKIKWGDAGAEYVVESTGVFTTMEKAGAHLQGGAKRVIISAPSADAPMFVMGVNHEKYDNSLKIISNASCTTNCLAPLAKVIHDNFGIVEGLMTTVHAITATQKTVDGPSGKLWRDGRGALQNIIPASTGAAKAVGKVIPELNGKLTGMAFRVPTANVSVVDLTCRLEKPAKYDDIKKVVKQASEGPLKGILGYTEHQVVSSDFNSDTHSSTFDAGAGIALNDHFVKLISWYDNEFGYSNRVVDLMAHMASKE

T1: endogenous Maf1 (human (endogenous in HeLa)) (UniProt Q9H063)
T1 sequence: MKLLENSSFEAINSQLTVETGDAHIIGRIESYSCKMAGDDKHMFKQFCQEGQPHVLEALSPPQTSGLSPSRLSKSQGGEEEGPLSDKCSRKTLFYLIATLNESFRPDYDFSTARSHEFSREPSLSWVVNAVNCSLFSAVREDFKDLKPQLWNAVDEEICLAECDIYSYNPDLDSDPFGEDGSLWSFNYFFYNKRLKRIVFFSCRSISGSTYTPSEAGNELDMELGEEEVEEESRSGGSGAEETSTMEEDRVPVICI


Key:
[1] = target: T1, endogenous Maf1 (human (endogenous in HeLa)); experiment: co-IP; HeLa (cell line 9-8) whole cell extract, immunoprecipitation with anti-Maf1 or anti-GAPDH antibodies; immunoblot with anti-RPC1, anti-Brf1, anti-Maf1
[2] = target: GAPDH (endogenous, HeLa) (human (endogenous in HeLa)) (UniProt P04406); experiment: as above

Binder	binding [1]	binding [2]
endogenous human Brf1 (protein, UniProt Q92994 1-677) MTGRVCRGCGGTDIELDAARGDAVCTACGSVLEDNIIVSEVQFVESSGGGSSAVGQFVSLDGAGKTPTLGGGFHVNLGKESRAQTLQNGRRHIHHLGNQLQLNQHCLDTAFNFFKMAVSRHLTRGRKMAHVIAACLYLVCRTEGTPHMLLDLSDLLQVNVYVLGKTFLLLARELCINAPAIDPCLYIPRFAHLLEFGEKNHEVSMTALRLLQRMKRDWMHTGRRPSGLCGAALLVAARMHDFRRTVKEVISVVKVCESTLRKRLTEFEDTPTSQLTIDEFMKIDLEEECDPPSYTAGQRKLRMKQLEQVLSKKLEEVEGEISSYQDAIEIELENSRPKAKGGLASLAKDGSTEDTASSLCGEEDTEDEELEAAASHLNKDLYRELLGGAPGSSEAAGSPEWGGRPPALGSLLDPLPTAASLGISDSIRECISSQSSDPKDASGDGELDLSGIDDLEIDRYILNESEARVKAELWMRENAEYLREQREKEARIAKEKELGIYKEHKPKKSCKRREPIQASTAREAIEKMLEQKKISSKINYSVLRGLSSAGGGSPHREDAQPEHSASARKLSRRRTPASRSGADPVTSVGKRLRPLVSTQPAKKVATGEALLPSSPTLGAEPARPQAVLVESGPVSYHADEEADEEEPDEEDGEPCVSALQMMGSNDYGCDGDEDDGY	binds	–
RPC1, the largest subunit of pol III (endogenous, HeLa) (protein, UniProt O14802 1-1390) MVKEQFRETDVAKKISHICFGMKSPEEMRQQAHIQVVSKNLYSQDNQHAPLLYGVLDHRMGTSEKDRPCETCGKNLADCLGHYGYIDLELPCFHVGYFRAVIGILQMICKTCCHIMLSQEEKKQFLDYLKRPGLTYLQKRGLKKKISDKCRKKNICHHCGAFNGTVKKCGLLKIIHEKYKTNKKVVDPIVSNFLQSFETAIEHNKEVEPLLGRAQENLNPLVVLNLFKRIPAEDVPLLLMNPEAGKPSDLILTRLLVPPLCIRPSVVSDLKSGTNEDDLTMKLTEIIFLNDVIKKHRISGAKTQMIMEDWDFLQLQCALYINSELSGIPLNMAPKKWTRGFVQRLKGKQGRFRGNLSGKRVDFSGRTVISPDPNLRIDEVAVPVHVAKILTFPEKVNKANINFLRKLVQNGPEVHPGANFIQQRHTQMKRFLKYGNREKMAQELKYGDIVERHLIDGDVVLFNRQPSLHKLSIMAHLARVKPHRTFRFNECVCTPYNADFDGDEMNLHLPQTEEAKAEALVLMGTKANLVTPRNGEPLIAAIQDFLTGAYLLTLKDTFFDRAKACQIIASILVGKDEKIKVRLPPPTILKPVTLWTGKQIFSVILRPSDDNPVRANLRTKGKQYCGKGEDLCANDSYVTIQNSELMSGSMDKGTLGSGSKNNIFYILLRDWGQNEAADAMSRLARLAPVYLSNRGFSIGIGDVTPGQGLLKAKYELLNAGYKKCDEYIEALNTGKLQQQPGCTAEETLEALILKELSVIRDHAGSACLRELDKSNSPLTMALCGSKGSFINISQMIACVGQQAISGSRVPDGFENRSLPHFEKHSKLPAAKGFVANSFYSGLTPTEFFFHTMAGREGLVDTAVKTAETGYMQRRLVKSLEDLCSQYDLTVRSSTGDIIQFIYGGDGLDPAAMEGKDEPLEFKRVLDNIKAVFPCPSEPALSKNELILTTESIMKKSEFLCCQDSFLQEIKKFIKGVSEKIKKTRDKYGINDNGTTEPRVLYQLDRITPTQVEKFLETCRDKYMRAQMEPGSAVGALCAQSIGEPGTQMTLKTFHFAGVASMNITLGVPRIKEIINASKAISTPIITAQLDKDDDADYARLVKGRIEKTLLGEISEYIEEVFLPDDCFILVKLSLERIRLLRLEVNAETVRYSICTSKLRVKPGDVAVHGEAVVCVTPRENSKSSMYYVLQFLKEDLPKVVVQGIPEVSRAVIHIDEQSGKEKYKLLVEGDNLRAVMATHGVKGTRTTSNNTYEVEKTLGIEAARTTIINEIQYTMVNHGMSIDRRHVMLLSDLMTYKGEVLGITRFGLAKMKESVLMLASFEKTADHLFDAAYFGQKDSVCGVSECIIMGIPMNIGTGLFKLLHKADRDPNPPKRPLIFDTNEFHIPLVT	–	no binding
